The record followed here is US20240043567A1 (published 2024).

The test has as its target QP3732 (Her2M2-Fc). In words: ELISA. In general terms: An ELISA detects its analyte on a solid surface through an enzyme-linked reagent.

B1: QP34563457 (bispecific antibody)
chain 1: [skipping about 100 residues]GGGGSGGGGSGGGGS[skipping about 120 residues]
chain 2: [skipping about 120 residues]GGGGSGGGGSGGGGSITCPPPMSVEHADIWVKSYSLYSRERYICNSGFKRKAGTCSLTECVLNKATNVAHWTTPSLKCIRGGGGS[skipping human IgG1 Fc with changes]
light: DIQMTQSPSSLSASVGDRVTITCKASQDVSIGVAWYQQKPGKAPKLLIYSASYRYTGVPSRFSGSGSGTDFTLTISSLQPEDFATYYCQQYYIYPYTFGQGTKVEIKRTVAAPSVFIFPPSDEQLKSGTASVVCLLNNFYPREAKVQWKVDNALQSGNSQESVTEQDSKDSTYSLSSTLTLSKADYEKHKVYACEVTHQGLSSPVTKSFNRGEC
heavy: EVQLVESGGGLVQPGGSLRLSCAASGFTFTDYTMDWVRQAPGKGLEWVADVNPNSGGSIYNQRFKGRFTLSVDRSKNTLYLQMNSLRAEDTAVYYCARNLGPSFYFDYWGQGTLVTVSSASTKGPSVFPLAPSSKSTSGGTAALGCLVKDYFPEPVTVSWNSGALTSGVHTFPAVLQSSGLYSLSSVVTVPSSSLGTQTYICNVNHKPSNTKVDKKV[skipping human IgG1 Fc with T366S L368A Y407V H435R (EU numbers)]
Turning to B1, the EC50 was 0.122 µg/mL.

One may read the EC50 as the concentration needed to bring the measured effect to its halfway point.
